The antibiotic and cytotoxicity screens of Wong et al. (2023)
Some of the results follow.

What was measured:
HSkMC = human skeletal muscle cells; assay: cytotoxicity call (relative viability < 0.9); conditions: 10 µM
S. aureus RN4220 = assay: growth inhibition call (relative growth <= 0.2); conditions: 50 µM

## [N-]=[N+]=NCc1ccccc1C[C@@]1(C(=O)N2CCCCC2)N=C(c2ccc(OCCCO)cc2)O[C@@H]1c1ccccc1
HSkMC
  cytotoxicity call: inactive
S. aureus RN4220
  growth inhibition call: inactive

## C[C@@H]1CN([C@@H](C)CO)C(=O)c2cc(NS(C)(=O)=O)ccc2O[C@@H](C)CCCCO[C@H]1CN(C)CC1CC1
HSkMC
  cytotoxicity call: inactive
S. aureus RN4220
  growth inhibition call: inactive

## C[C@H]1CN([C@@H](C)CO)C(=O)c2cccc(NC(=O)Nc3cccc4ccccc34)c2O[C@@H]1CN(C)S(=O)(=O)c1cccs1
HSkMC
  cytotoxicity call: active
S. aureus RN4220
  growth inhibition call: inactive

## CN(C)CCOC(c1ccc(Cl)cc1)c1ccccn1.O=C(O)C=CC(=O)O (stereo not given)
HSkMC
  cytotoxicity call: inactive
S. aureus RN4220
  growth inhibition call: inactive

## Cc1noc(C)c1NC(=O)N(C)C[C@H]1OCCCC[C@@H](C)Oc2ccc(NC(=O)Nc3ccc(C(F)(F)F)cc3)cc2C(=O)N([C@H](C)CO)C[C@@H]1C
HSkMC
  cytotoxicity call: inactive
S. aureus RN4220
  growth inhibition call: inactive

## COc1ccc(S(=O)(=O)Nc2ccc3c(c2)C(=O)N([C@H](C)CO)C[C@H](C)[C@H](CN(C)CC2CCCCC2)OCCCC[C@H](C)O3)cc1
HSkMC
  cytotoxicity call: inactive
S. aureus RN4220
  growth inhibition call: inactive

## C[C@@H]1CCCCO[C@@H](CN(C)Cc2ccc(C(=O)O)cc2)[C@H](C)CN([C@@H](C)CO)C(=O)c2cc(NS(=O)(=O)c3ccc(F)cc3)ccc2O1
HSkMC
  cytotoxicity call: inactive
S. aureus RN4220
  growth inhibition call: inactive

## C[C@@H]1CN([C@@H](C)CO)C(=O)CCCn2cc(nn2)CO[C@@H]1CN(C)S(=O)(=O)c1cn(C)cn1
HSkMC
  cytotoxicity call: inactive
S. aureus RN4220
  growth inhibition call: inactive

## C[C@H]1CN([C@@H](C)CO)C(=O)c2cc(NC(=O)CCCN(C)C)ccc2O[C@@H]1CN(C)C(=O)Nc1ccccc1
HSkMC
  cytotoxicity call: inactive
S. aureus RN4220
  growth inhibition call: inactive

## Cc1noc(C)c1S(=O)(=O)N(C)C[C@H]1Oc2ccc(NS(=O)(=O)c3ccc(F)cc3)cc2CC(=O)N([C@@H](C)CO)C[C@H]1C
HSkMC
  cytotoxicity call: inactive
S. aureus RN4220
  growth inhibition call: inactive

## CO[C@H]1CN(C)C(=O)c2ccc(NS(=O)(=O)c3cn(C)cn3)cc2OC[C@@H](C)N(Cc2cccc(F)c2)C[C@@H]1C
HSkMC
  cytotoxicity call: inactive
S. aureus RN4220
  growth inhibition call: inactive

## COc1ccc(CN(C)C[C@@H]2Oc3ccc(NC(=O)CCN4CCOCC4)cc3C(=O)N([C@@H](C)CO)C[C@H]2C)cc1
HSkMC
  cytotoxicity call: inactive
S. aureus RN4220
  growth inhibition call: inactive

## Cc1noc(C)c1S(=O)(=O)N(C)C[C@@H]1Oc2ccc(NC(=O)Cc3cn(C)c4ccccc34)cc2CC(=O)N([C@@H](C)CO)C[C@@H]1C
HSkMC
  cytotoxicity call: active
S. aureus RN4220
  growth inhibition call: inactive

## COc1cccc(C#Cc2ccc([C@@H]3[C@@H](CO)N4C(=O)CN(S(=O)(=O)c5ccccc5C)C[C@H]34)cc2)c1
HSkMC
  cytotoxicity call: inactive
S. aureus RN4220
  growth inhibition call: inactive

## CCS(=O)(=O)N1C[C@]2(CN(Cc3cccc(c3)Cl)[C@@H](CO)c3c2c2ccc(cc2n3C)OC)C1
HSkMC
  cytotoxicity call: inactive
S. aureus RN4220
  growth inhibition call: inactive

## Cc1ccc(S(=O)(=O)Nc2cccc3c2O[C@@H](CN(C)Cc2ccc(C(F)(F)F)cc2)[C@@H](C)CN([C@H](C)CO)C3=O)cc1
HSkMC
  cytotoxicity call: inactive
S. aureus RN4220
  growth inhibition call: inactive

## CNC(=O)c1ccc2c(c1)OCO2
HSkMC
  cytotoxicity call: inactive
S. aureus RN4220
  growth inhibition call: inactive

## COc1ccc(CN2C[C@@H](C)[C@@H](OC)CN(C)C(=O)c3cc(NC(=O)c4nc5ccccc5s4)ccc3OC[C@@H]2C)cc1
HSkMC
  cytotoxicity call: inactive
S. aureus RN4220
  growth inhibition call: inactive

## COc1ccc(NC(=O)N(C)C[C@H]2Oc3ccc(NC(=O)Nc4ccc(C(F)(F)F)cc4)cc3CC(=O)N([C@@H](C)CO)C[C@@H]2C)cc1
HSkMC
  cytotoxicity call: inactive
S. aureus RN4220
  growth inhibition call: inactive

## C[C@H](CO)N1C[C@H](C)[C@H](CN(C)C(=O)NC2CCCCC2)Oc2ccc(NC(=O)Nc3ccc(C(F)(F)F)cc3)cc2CC1=O
HSkMC
  cytotoxicity call: inactive
S. aureus RN4220
  growth inhibition call: inactive

## Cc1ccc(S(=O)(=O)N(C)C[C@H]2OCCCC[C@H](C)Oc3ccc(NC(=O)Nc4ccc(F)cc4)cc3C(=O)N([C@@H](C)CO)C[C@H]2C)cc1
HSkMC
  cytotoxicity call: inactive
S. aureus RN4220
  growth inhibition call: inactive

## COCCc1ccc(OCC(O)CNC(C)C)cc1.O=C(O)C(O)C(O)C(=O)O (stereo not given)
HSkMC
  cytotoxicity call: inactive
S. aureus RN4220
  growth inhibition call: inactive

## COc1ccc(S(=O)(=O)Nc2ccc3c(c2)C(=O)N([C@H](C)CO)C[C@H](C)[C@@H](CN(C)CC2CCCCC2)OCCCC[C@@H](C)O3)cc1
HSkMC
  cytotoxicity call: inactive
S. aureus RN4220
  growth inhibition call: inactive

## CCS(=O)(=O)N1C[C@]2(CN(C2)C(=O)Nc2ccc(cc2)F)c2c(n(c3cc(ccc23)OC)C)[C@H]1CO
HSkMC
  cytotoxicity call: inactive
S. aureus RN4220
  growth inhibition call: inactive

## CC(N)(Cc1cccc(O)c1)C(=O)O (stereo not given)
HSkMC
  cytotoxicity call: inactive
S. aureus RN4220
  growth inhibition call: inactive

## O=C(CCCCCCC(=O)Nc1ccc([C@H]2C[C@H](c3ccccc3)O[C@H](c3cccc(Oc4ccccc4)c3)O2)cc1)NO
HSkMC
  cytotoxicity call: inactive
S. aureus RN4220
  growth inhibition call: inactive

## COc1ccc(S(=O)(=O)N(C)C[C@@H]2Oc3cc(-c4ccccc4OC)ccc3S(=O)(=O)N([C@H](C)CO)C[C@H]2C)cc1
HSkMC
  cytotoxicity call: inactive
S. aureus RN4220
  growth inhibition call: inactive

## COc1cc2nc(N3CCCN(Cc4ccccc4)CC3)nc(NC3CCN(Cc4ccccc4)CC3)c2cc1OC
HSkMC
  cytotoxicity call: inactive
S. aureus RN4220
  growth inhibition call: inactive

## COc1cnc(NS(=O)(=O)c2ccc(N)cc2)nc1
HSkMC
  cytotoxicity call: inactive
S. aureus RN4220
  growth inhibition call: inactive

## C[C@H](CO)N1C[C@H](C)[C@@H](CN(C)S(=O)(=O)c2cn(C)cn2)Oc2ccc(NC(=O)Cc3cn(C)c4ccccc34)cc2C1=O
HSkMC
  cytotoxicity call: inactive
S. aureus RN4220
  growth inhibition call: inactive

## CO[C@H]1CN(C)C(=O)c2cc(NS(=O)(=O)c3cn(C)cn3)ccc2OC[C@@H](C)N(CC2CC2)C[C@@H]1C
HSkMC
  cytotoxicity call: inactive
S. aureus RN4220
  growth inhibition call: inactive

## CO[C@H]1CN(C)C(=O)c2ccc(NS(=O)(=O)CC(F)(F)F)cc2OC[C@H](C)N(C(=O)NC(C)C)C[C@@H]1C
HSkMC
  cytotoxicity call: inactive
S. aureus RN4220
  growth inhibition call: inactive

## Cc1ccc(S(=O)(=O)Nc2ccc3c(c2)C(=O)N([C@H](C)CO)C[C@@H](C)[C@@H](CN(C)S(=O)(=O)c2ccc(Cl)cc2)OCCCC[C@@H](C)O3)cc1
HSkMC
  cytotoxicity call: inactive
S. aureus RN4220
  growth inhibition call: inactive

## CN(C)C(=O)C[C@H]1CC[C@H](NC(=O)C2CCOCC2)[C@H](CO)O1
HSkMC
  cytotoxicity call: inactive
S. aureus RN4220
  growth inhibition call: inactive

## COc1ccccc1-c1cnc2c(c1)C(=O)N([C@@H](C)CO)C[C@H](C)[C@@H](CN(C)C(=O)c1ccncc1)O2
HSkMC
  cytotoxicity call: inactive
S. aureus RN4220
  growth inhibition call: inactive

## C[C@H]1CN([C@@H](C)CO)C(=O)Cc2cc(NC(=O)Nc3cccc4ccccc34)ccc2O[C@@H]1CN(C)Cc1ccc2c(c1)OCO2
HSkMC
  cytotoxicity call: inactive
S. aureus RN4220
  growth inhibition call: inactive

## C[C@H](CO)N1C[C@H](C)[C@@H](CN(C)Cc2ccncc2)Oc2cc(C#CCN(C)C)ccc2S1(=O)=O
HSkMC
  cytotoxicity call: inactive
S. aureus RN4220
  growth inhibition call: inactive

## C[C@H]1CN([C@@H](C)CO)C(=O)c2cccc(NC(=O)c3ccncc3)c2O[C@H]1CN(C)Cc1ccncc1
HSkMC
  cytotoxicity call: inactive
S. aureus RN4220
  growth inhibition call: inactive

## CCc1oc(CC[C@@H](CO)NC(=O)NCCn2cc(C3(O)CCCCC3)nn2)c(C(=O)OC)c1C(=O)OC
HSkMC
  cytotoxicity call: inactive
S. aureus RN4220
  growth inhibition call: inactive

## Nc1cc(N)nc(SCCC(=O)O)n1
HSkMC
  cytotoxicity call: inactive
S. aureus RN4220
  growth inhibition call: inactive

## C[C@@H]1CCCCO[C@H](CN(C)C(=O)CCCN(C)C)[C@@H](C)CN([C@@H](C)CO)C(=O)c2cc(N(C)C)ccc2O1
HSkMC
  cytotoxicity call: inactive
S. aureus RN4220
  growth inhibition call: inactive

## CC(C)NC(=O)Nc1ccc2c(c1)CC(=O)N([C@H](C)CO)C[C@H](C)[C@H](CN(C)C(=O)NC1CCCCC1)O2
HSkMC
  cytotoxicity call: inactive
S. aureus RN4220
  growth inhibition call: inactive

## C[C@H](CO)N1C[C@H](C)[C@H](CN(C)Cc2ccc(C(=O)Nc3ccccc3N)cc2)Oc2ccc(NC(=O)C3CCCCC3)cc2CC1=O
HSkMC
  cytotoxicity call: inactive
S. aureus RN4220
  growth inhibition call: inactive

## COC(=O)COc1nsnc1N1CCOCC1
HSkMC
  cytotoxicity call: inactive
S. aureus RN4220
  growth inhibition call: inactive

## C[C@H](CO)N1C[C@H](C)[C@H](CN(C)Cc2ccc(Oc3ccccc3)cc2)Oc2ccc(NC(=O)CCCN(C)C)cc2CC1=O
HSkMC
  cytotoxicity call: inactive
S. aureus RN4220
  growth inhibition call: inactive

## C[C@H]1CN([C@@H](C)CO)C(=O)Cc2cc(NC(=O)CCCCCC(=O)Nc3ccccc3N)ccc2O[C@H]1CN(C)Cc1ccc(Oc2ccccc2)cc1
HSkMC
  cytotoxicity call: inactive
S. aureus RN4220
  growth inhibition call: inactive

## C=CCC[C@H](Cc1ccc(F)cc1)C(=O)O[C@@H](CNC(=O)[C@H](CC=C)CC(=O)N(CCO)Cc1ccccc1)c1ccccc1
HSkMC
  cytotoxicity call: inactive
S. aureus RN4220
  growth inhibition call: inactive

## O=C(C=Cc1ccc(O)cc1)c1ccccc1O
HSkMC
  cytotoxicity call: inactive
S. aureus RN4220
  growth inhibition call: inactive

## O=C1CN(S(=O)(=O)Cc2ccccc2)C[C@H]2[C@@H](c3ccc(C#Cc4ccc(F)cc4)cc3)[C@@H](CO)N12
HSkMC
  cytotoxicity call: inactive
S. aureus RN4220
  growth inhibition call: inactive

## C[C@H]1CN([C@@H](C)CO)S(=O)(=O)c2ccc(C#Cc3ccccc3)cc2O[C@H]1CN(C)S(=O)(=O)c1cn(C)cn1
HSkMC
  cytotoxicity call: inactive
S. aureus RN4220
  growth inhibition call: inactive

## C[C@@H]1CCCCO[C@H](CN(C)C(=O)Nc2ccc(F)cc2)[C@H](C)CN([C@@H](C)CO)C(=O)c2cc(NC(=O)C3CCCCC3)ccc2O1
HSkMC
  cytotoxicity call: inactive
S. aureus RN4220
  growth inhibition call: inactive

## C[C@@H]1CCCCO[C@H](CN(C)S(=O)(=O)c2ccccc2)[C@@H](C)CN([C@@H](C)CO)C(=O)c2cc(NC(=O)CCC(F)(F)F)ccc2O1
HSkMC
  cytotoxicity call: inactive
S. aureus RN4220
  growth inhibition call: inactive

## Cc1ccc(S(=O)(=O)N(C)C[C@@H]2Oc3ccc(NS(=O)(=O)c4c(C)noc4C)cc3C(=O)N([C@H](C)CO)C[C@H]2C)cc1
HSkMC
  cytotoxicity call: inactive
S. aureus RN4220
  growth inhibition call: inactive

## C[C@@H]1CN([C@@H](C)CO)S(=O)(=O)c2ccc(C#Cc3cccnc3)cc2O[C@@H]1CN(C)C(=O)Nc1ccc2c(c1)OCO2
HSkMC
  cytotoxicity call: inactive
S. aureus RN4220
  growth inhibition call: inactive

## C[C@@H]1CN([C@H](C)CO)C(=O)Cc2cc(NC(=O)Cc3ccccc3)ccc2O[C@H]1CN(C)Cc1ccc(C(F)(F)F)cc1
HSkMC
  cytotoxicity call: inactive
S. aureus RN4220
  growth inhibition call: inactive

## COc1cccc(-c2ccc3c(c2)O[C@@H](CN(C)C(=O)C2CCC2)[C@@H](C)CN([C@H](C)CO)S3(=O)=O)c1
HSkMC
  cytotoxicity call: inactive
S. aureus RN4220
  growth inhibition call: inactive

## O=C(C[C@@H]1CC[C@H]2[C@@H](COC[C@@H](O)CN2S(=O)(=O)c2cccc(Cl)c2)O1)N1CCOCC1
HSkMC
  cytotoxicity call: inactive
S. aureus RN4220
  growth inhibition call: inactive

## C[C@@H]1CN([C@@H](C)CO)C(=O)c2cc(C#C[C@@H](C)O)cnc2O[C@H]1CN(C)Cc1cncnc1
HSkMC
  cytotoxicity call: inactive
S. aureus RN4220
  growth inhibition call: inactive

## C[C@H]1CCCCO[C@H](CN(C)S(=O)(=O)c2ccccc2)[C@@H](C)CN([C@@H](C)CO)C(=O)c2cc(NC(=O)Nc3cccc4ccccc34)ccc2O1
HSkMC
  cytotoxicity call: inactive
S. aureus RN4220
  growth inhibition call: inactive

## C[C@@H]1CN([C@@H](C)CO)C(=O)c2cc(NC(=O)Nc3ccc(F)cc3)ccc2O[C@@H](C)CCCCO[C@@H]1CN(C)S(=O)(=O)c1ccc(F)cc1
HSkMC
  cytotoxicity call: inactive
S. aureus RN4220
  growth inhibition call: inactive
